Laboratory results from PubChem BioAssay AID686979 (National Center for Advancing Translational Sciences (NCATS), 2013).
“And” between values parts separate entries of the source, which are not always exact repeats. Equal values may be shown once. In all, about 420,000 compounds went through this assay and about 50,000 (12%) were called active. Inconclusive results, whose numbers are uncertain, are shown with a selection of clear calls. Calls come from the whole dose curve; as a rule, active = well fitted inhibition curve with a large enough effect; inconclusive = small, poorly fitted or top-dose-only effect; inactive = flat fitted curve, though single readings scatter. Potencies beside an inconclusive call are fits to weak or partial responses and may not hold up.
% is set by controls: 0 for no effect and ±100 for the full control effect; potency is the fitted concentration of half-maximal effect; tags give direction and shape of the fitted curve.

Assay: qHTS for Inhibitors of human tyrosyl-DNA phosphodiesterase 1 (TDP1): qHTS in cells in presence of CPT; note: nearly all actives have a fitted effect of over 55% in size
Settings: chicken DT40 Tdp1-/-;hTDP1 cells + 20 nM CPT, ATP luminescence, 48 h; activity change, negative = growth inhibition: at 46.2 µM (top of the series)
Summary of the method: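 Cell growth measured by CellTiter-Glo luminescence after a minimum 48 h, 37 C compound exposure with 20 nM CPT in Tdp1-knockout DT40 cells stably expressing hTDP1, seeded 400/well; qHTS titration format.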
In the case of CCNc1nc(NC(C)C)nc(N(C#N)CCOc2ccccc2)n1, the Potency was active: 23.1 µM.
With C(=C\c1ccccc1)/CSc1nnc(-c2cccnc2)n1Cc1ccco1 the Potency was inconclusive: 29.1 µM [inhibitor, single point].
With COc1cc(OC)c(NC(=O)CCn2cnc3onc(-c4ccc(F)cc4)c3c2=O)cc1Cl the Potency was active: 11.6 µM.
With CC(C)C[C@H]1CNC(=S)N1CC1CCN(CCC23CC4CC(CC(C4)C2)C3)CC1 the Potency was inconclusive: 23.1 µM [inhibitor, single point].
For COC(=O)c1cc(S(=O)(=O)NCCCc2ccco2)c[nH]1, the Potency was inconclusive: 29.1 µM [inhibitor, single point].
In the case of O=C(Nc1ccc(F)cc1)c1oc2ccccc2c1NC(=O)C1CCCC1, the Potency was inconclusive: 32.6 µM [inhibitor, single point].
In the case of CCOc1ccc(NC2c3ccccc3C(=O)N2Cc2ccco2)cc1 (centres undefined), the Potency was active: 16.4 µM.
For COc1ccc(NC(=O)CN(C)C(=O)c2cn(-c3ccccc3)nc2-c2ccc(OC)cc2)cc1, the Potency was inconclusive: 20.6 µM [inhibitor, single point].
With COc1ccc(CCCc2nnc(SCC(=O)Nc3nccs3)n2C)cc1C the activity change, negative = growth inhibition was inconclusive: -32% [inhibitor].
For O=C(NCc1ccc2c(c1)OCO2)c1nc(S(=O)(=O)Cc2ccccc2)ncc1Cl, the Potency was active: 2.59 µM.
In the case of COc1ccc(N2CCN(C(c3cccs3)C(C)NC(=O)C(=O)N3CCCC3)CC2)cc1 (centres undefined), the Potency was active: 16.4 µM.
In the case of Cc1onc(-c2ccccc2)c1C(=O)N/N=C(\N)COc1ccc(Cl)cc1, the Potency was active: 16.4 µM.
With COc1ccccc1CCNc1ncnc2sc(C(=O)N3CCCCC3)c(C)c12 the Potency was inconclusive: 29.1 µM [inhibitor, single point].
In the case of COCCn1nnnc1CN(CCc1ccccc1)Cc1cc2ccc(C)cc2[nH]c1=O, the Potency was inconclusive: 23.1 µM [inhibitor, partial curve].
For CCOc1ccc(NC(=O)N(Cc2c[nH]c3ccccc23)C2CCCCC2)cc1, the Potency was active: 8.2 µM.
In the case of O=[N+]([O-])c1ccccc1-c1ccc(C(=S)N2CCCCC2)o1, the Potency was “inactive”.
With Cc1ccc(C(=O)N[C@H](C(=O)OCc2cc(=O)oc3cc(C)ccc23)C(C)C)cc1 the Potency was “inactive”.
In the case of COc1ccc(CN2CCOc3ccc(CN4CCC(O)(c5cccnc5)CC4)cc3C2)c(C)c1C, the Potency was inconclusive: 6.51 µM [inhibitor, single point].
In the case of COc1ccc(C2CC=C(C(C)=O)CN2S(=O)(=O)c2ccc(C)cc2)cc1 (centres undefined), the Potency was inconclusive: 18.4 µM [inhibitor, single point].
For COc1cc(OC)cc(C(=O)NNC(=O)CNC(=O)c2cccs2)c1, the Potency was “inactive”.
In the case of CC1(C)CC2CC(C)(CN2C(=O)c2cc(-c3ccccc3)on2)C1 (centres undefined), the Potency was inconclusive: 20.6 µM [inhibitor, partial curve, poor fit].
With CC1=NN(C(=O)c2ccccc2F)C(O)(c2ccc(Cl)cc2)C1 (centres undefined) the Potency was inconclusive: 23.1 µM [inhibitor, single point].
For CCCNC(=O)C1(C)CCN(Cc2ccc(Cl)c(Cl)c2)C1 (centres undefined), the Potency was inconclusive: 29.1 µM [inhibitor, single point].
For NC(=O)c1ccsc1NC(=O)CSc1ccccc1F, the Potency was inconclusive: 16.4 µM [inhibitor, partial curve].
With CCCCNC(=O)c1[nH]c2ccccc2c1Sc1ccc(C)cc1 the Potency was inconclusive: 32.6 µM [inhibitor, single point].
In the case of CCc1ccccc1NC(=O)CN1CCN(CC(=O)Nc2ccc3c(c2)OC2(CCCCC2)O3)CC1, the Potency was active: 18.4 µM.
For COc1ccc(/C=C(\C#N)C(=O)NCc2ccccc2)cc1, the Potency was “inactive”.
In the case of CC(=O)Nc1ccc(N(C(=O)CNC(=O)c2ccco2)C(C(=O)NC2CCCC2)c2ccco2)cc1 (centres undefined), the Potency was “inactive”.
In the case of CC1CN(C(=O)c2ccccc2NS(=O)(=O)c2cccc([N+](=O)[O-])c2)CC(C)O1 (centres undefined), the Potency was “inactive”.
In the case of Cn1ncn2c(=O)c3c(nc12)-c1ccccc1CC31CCCC1, the Potency was inconclusive: 20.6 µM [inhibitor, single point].
With Cn1cc(S(=O)(=O)N2CCCCC2)cc1C(=O)N1CCN(c2ccc(F)cc2)CC1 the Potency was inconclusive: 11.6 µM [inhibitor, partial curve].
In the case of CN(CC(=O)Nc1ccc(F)cc1)C(=O)c1ccc(-c2ccc(F)cc2)o1, the Potency was inconclusive: 25.9 µM [inhibitor, single point].
With CC(NC(=O)CN(C)S(=O)(=O)c1ccc2c(c1)c(=O)n(C)c(=O)n2C)c1ccccc1 (centres undefined) the Potency was inconclusive: 11.6 µM [inhibitor, partial curve].
With NC(c1csc(Nc2ncccn2)n1)c1ccccc1Cl (centres undefined) the Potency was active: 20.6 µM.
In the case of Cc1cc(C(=O)NCCN2C(=O)S/C(=C\c3cccs3)C2=O)ccc1[N+](=O)[O-], the Potency was inconclusive: 29.1 µM [inhibitor, partial curve, poor fit].
With Cc1ccc(C)c(N2CCN(C(=O)CCCCCn3c(=S)[nH]c4ccc(N5CCOCC5)cc4c3=O)CC2)c1 the Potency was inconclusive: 4.11 µM [inhibitor, partial curve, poor fit].
In the case of CC(C)(C)NC(=O)CSc1nc(-c2ccc(F)cc2)cs1, the Potency was “inactive”.
With COc1ccc(CCNC(=O)c2coc3ccccc3c2=O)cc1OC the Potency was “inactive”.
For O=C(CN1C(=O)NC(c2ccccc2)(c2ccccc2)C1=O)NCC(=O)Nc1ccc(F)cc1, the Potency was inconclusive: 16.4 µM [inhibitor, single point].
With CCc1ccc(NC(=O)CSc2nccn2C2CCCC2)cc1 the Potency was active: 18.4 µM.
In the case of CN1CCc2c(c3c(n2C)CCN(C)C3c2ccc(F)cc2)C1c1ccc(F)cc1 (centres undefined), the Potency was inconclusive: 23.1 µM [inhibitor, single point].
For CCCCCCN1C[C@@H](n2cc(COC(=O)c3ccccc3)nn2)[C@H](O)C[C@@H]1c1ccccc1, the Potency was inconclusive: 29.1 µM [inhibitor, single point].
With COc1ccc(CCNC(=O)Cn2ncc3c(C)n(Cc4ccccc4F)c(C)c3c2=O)cc1OC the Potency was “inactive”.
In the case of Cc1ccc(C)c(-c2csc(-c3c(N)c(C(=O)c4ccc5c(c4)OCO5)n4ccccc34)n2)c1, the Potency was inconclusive: 29.1 µM [inhibitor, single point].
In the case of Cc1ccc2c(c1)sc(=NC(=O)c1cccs1)n2C, the Potency was inconclusive: 7.31 µM [inhibitor, partial curve].
For Cc1cc2nc(-c3ccco3)c(Cc3cccc(F)c3)n2c(C)c1Br, the Potency was active: 16.4 µM.
With Cc1cccc(C(=O)NNC(=O)c2ccccc2C)c1 the Potency was “inactive”.
With Cc1[nH]n(-c2ccccc2)c(=O)c1C=NCC1CCCO1 (centres undefined) the Potency was “inactive”.
For Cc1c(C(N)=O)nnn1-c1ccc(Br)cc1, the Potency was “inactive”.
With O=C(NCC(c1ccco1)N1CCN(c2ccccc2F)CC1)c1cccs1 (centres undefined) the Potency was “inactive”.
For CCc1nnc(NC(=O)CSc2nc3c(c(=O)n2CC)SC(C)C3)s1 (centres undefined), the Potency was active: 18.4 µM.
With O=C(CN1C(=O)C2(OCCCO2)c2ccccc21)NCCc1ccccc1 the Potency was inconclusive: 29.1 µM [inhibitor, partial curve].
With CCCCN(C)C(=O)c1sc(=O)n(Cc2ccc(Cl)c(Cl)c2)c1C the Potency was inconclusive: 29.1 µM [inhibitor, single point].
In the case of O=C(O)c1ccc(-c2ncc[nH]2)cc1, the Potency was inconclusive: 20.6 µM [inhibitor, single point].
In the case of Cc1ccc2nc(N(Cc3cccnc3)C(=O)C3CCCCC3)sc2c1, the Potency was inconclusive: 25.9 µM [inhibitor, single point].
In the case of COc1ccc(Br)cc1C1CC(=O)Nc2c1c(C)nn2-c1nc(C)cc(C)n1 (centres undefined), the Potency was active: 16.4 µM.
For C#CCOCCOCCOCCNc1nc(N2CCN(C(=O)Cn3cc(CC(C)O)nn3)CC2)nc(N2CCN(C(=O)[C@H](C)n3cc(CCCN=C(N)N)nn3)CC2)n1 (some centres undefined), the Potency was “inactive”.
With Cc1ccccc1S(=O)(=O)Cc1ccc(C(=O)NC2CCCCCC2)o1 the Potency was inconclusive: 23.1 µM [inhibitor, single point].
With Cc1cccc(NC(=O)Cn2c(=O)oc3cc(S(=O)(=O)NCc4ccccc4)ccc32)c1 the Potency was inconclusive: 8.2 µM [inhibitor, partial curve, poor fit].
For COc1ccc(OC)c(S(=O)(=O)Nc2c(NC3CCCCC3)c3ccccc3oc2=O)c1, the Potency was inconclusive: 29.1 µM [inhibitor, partial curve, poor fit].
For CCOC(=O)c1cnc2ccc(Br)cc2c1NCC(C)O (centres undefined), the activity change, negative = growth inhibition was inconclusive: -31.7% [inhibitor].
For CCCOc1ccc(-c2c(C(=O)N/N=C/c3ccccc3OCC)nnn2-c2nonc2N)cc1, the Potency was “inactive”.
For Cc1ccc(CN2CC(C(=O)N3CCN(S(=O)(=O)c4cc(C)ccc4C)CC3)CC2=O)cc1 (centres undefined), the Potency was inconclusive: 20.6 µM [inhibitor, single point].
In the case of CC(C)OC(=O)c1cc2c(ccn2C)n1CC(=O)N1CCC(Cc2ccccc2)CC1, the Potency was inconclusive: 18.4 µM [inhibitor, single point].
In the case of Cc1nc(C(=O)N2CCCC(C(=O)c3ccc(Cl)cc3)C2)cs1 (centres undefined), the Potency was inconclusive: 20.6 µM [inhibitor, single point].
With O=C(Nc1nc(-c2ccc(S(=O)(=O)N3CCOCC3)cc2)cs1)c1ccccc1 the Potency was inconclusive: 10.3 µM [inhibitor, partial curve] and inconclusive: 25.9 µM [inhibitor, single point].
With O=C(c1ccc(Oc2ccc([N+](=O)[O-])cc2)cc1)N1CCCCCC1 the Potency was inconclusive: 8.2 µM [inhibitor, single point].
For CCOc1ccccc1CNCc1ccc(F)cc1, the Potency was “inactive”.
With O=[N+]([O-])c1ccccc1-c1cc(-c2cc(Cl)ccc2O)n[nH]1 the Potency was inconclusive: 29.1 µM [inhibitor, single point].
